# Laboratory results reported in PubChem BioAssay AID743449 (Broad Institute, 2014).
# The whole screen tested about 9,900 compounds, of which about 90 (0.9%) were called active. Inconclusive results, whose numbers are uncertain, are shown with a selection of clear calls.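 How the source made its calls: active means mean normalized replicate activity at least 50 and at least half of replicates each reaching 50; inconclusive means only one of the two criteria met; inactive means neither criterion met.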
# Test: reduction of CTGF mRNA in DLD1 cells – DLD1 colon cancer cells, RT-qPCR, single point, primary screen (AID 743449);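 further: 0% = neutral control wells and 100% = dasatinib control wells; higher means stronger suppression of CTGF expression like dasatinib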
# Details: 24 h, at 12.5 µM, active compounds read high
row,SMILES,inhibition
1,COCC(=O)N1CC[C@@H]2[C@H](CO)Nc3ccc(C#Cc4ccc(F)cc4)cc3[C@@H]21,active: 51.2%
2,C[C@@H]1CN([C@H](C)CO)C(=O)CCCn2nncc2CO[C@@H]1CN(C)Cc1cccc(C(F)(F)F)c1,active: 61.3%
3,CC(C)N(C[C@H]1N[C@H](CO)[C@H]1c1ccccc1)S(=O)(=O)c1ccccc1,inactive: -1.38%
4,COc1ccc(NC(=O)N(C)C[C@H]2Oc3c(NC(=O)CCCCCC(=O)Nc4ccccc4N)cccc3C(=O)N([C@H](C)CO)C[C@@H]2C)cc1,active: 51%
5,Cc1ccc(S(=O)(=O)N2CC[C@@H]3[C@@H](CO)Nc4ccc(-c5cccc(C(=O)N(C)C)c5)cc4[C@@H]32)cc1,inactive: 4.93%
6,CO[C@@H]1CN(C)C(=O)c2cc(NC(=O)NC3CCCCC3)ccc2OC[C@@H](C)N(CC2CCOCC2)C[C@H]1C,inconclusive: 24.9%
7,CCS(=O)(=O)N1CC(=O)N2[C@H](CO)[C@@H](c3ccc(C4=CCCCC4)cc3)[C@@H]2C1,inactive: 0.977%
8,Cc1ccccc1-c1ccc([C@@H]2[C@H](CO)N3CCCCN(S(=O)(=O)Cc4ccccc4)C[C@@H]23)cc1,inactive: 26%
9,CC(C)[C@@H]1C(=O)N[C@H](c2cccc(Cl)c2)CC=CC[C@@H](C)Oc2ccccc2C(=O)N1C (mixture of isomers),inactive: 14.5%
10,COc1cccc(-c2ccc([C@@H]3[C@@H](C#N)N(C(=O)Cc4ccncc4)[C@@H]3CO)cc2)c1,active: 50.4%
11,C[C@H](CO)N1C[C@H](C)[C@H](CN(C)Cc2ccc(Oc3ccccc3)cc2)OCc2ccccc2-c2ccccc2C1=O,active: 59%
12,COc1ccc(NC(=O)N2CCCCN3[C@H](C2)[C@@H](c2ccc(-c4ccccc4F)cc2)[C@@H]3CO)cc1,inactive: -27.6%
13,C[C@H](CO)N1C[C@H](C)[C@H](CN(C)C(=O)Nc2cccc(Oc3ccccn3)c2)OCc2cnnn2CCCC1=O,inconclusive: 27.8%
14,C[C@@H]1CN([C@H](C)CO)S(=O)(=O)c2ccc(C#Cc3cccc(F)c3)cc2O[C@@H]1CN(C)S(=O)(=O)c1cn(C)cn1,active: 72.6%
15,Cc1cc(C(=O)Nc2ccc3c(c2)C(=O)N(C)[C@@H]2CC[C@@H](CC(=O)O)O[C@H]2CO3)no1,inactive: 8.49%
16,CCC(=O)N1CC2(C1)[C@@H](c1ccc(-c3cccc(C)c3)cc1)[C@@H](CO)N2S(C)(=O)=O,inconclusive: 41.3%
17,CO[C@@H]1CN(C)C(=O)c2ccc(NS(C)(=O)=O)cc2OC[C@H](C)N(CC2CC2)C[C@H]1C,inconclusive: 48.3%
18,COc1ccccc1C(=O)Nc1ccc2c(c1)C(=O)N(C)C[C@H](OC)[C@H](C)CN(C(C)=O)[C@H](C)CO2,inactive: -22.7%
19,COc1ccc2c3c(n(C)c2c1)[C@H](CO)N(Cc1ccccc1)CC31CN(C(=O)c2ccccc2F)C1,inconclusive: 30.8%
20,OC[C@H]1[C@@H](c2ccccc2)C2(CN(Cc3ccccn3)C2)N1Cc1cncnc1,inconclusive: 33.7%

row,SMILES,inhibition
1,Cc1cccc(-c2ccc([C@@H]3[C@@H](CO)N4CCCCN(S(=O)(=O)c5ccccc5F)C[C@@H]34)cc2)c1,active: 63.6%
2,CCS(=O)(=O)Nc1ccc2c(c1)C(=O)N(C)[C@H]1CC[C@H](CC(=O)NCCCN3CCOCC3)O[C@H]1CO2,inconclusive: 16.4%
3,CCS(=O)(=O)Nc1ccc2c(c1)C(=O)N(C)C[C@H](OC)[C@@H](C)CN(CC1CCCCC1)[C@@H](C)CO2,inconclusive: 44.2%
4,CCc1nc(N2[C@H](CO)[C@H](c3ccccc3-c3ccccc3C)[C@@H]2C#N)sc1C,inconclusive: 15%
5,CO[C@H]1CN(C)C(=O)c2cc(NC(=O)Nc3cc(F)ccc3F)ccc2OC[C@H](C)NC[C@@H]1C,inconclusive: 39.3%
6,C[C@@H]1CCCCO[C@@H](CN(C)Cc2ccc(C(=O)O)cc2)[C@H](C)CN([C@H](C)CO)C(=O)c2cc(N(C)C)ccc2O1,inactive: -3.21%
7,CC(C)C#Cc1ccc([C@H]2[C@H](CO)N3C(=O)CN(C(=O)Cc4ccccc4)C[C@@H]23)cc1,inconclusive: 34.9%
8,COc1ccc(CN(C)C[C@H]2OCc3cnnn3CCCC(=O)N([C@H](C)CO)C[C@H]2C)cc1,inconclusive: 13.6%
9,CC(=O)N1CC2(C1)[C@H](c1ccccc1)[C@H](CO)N2C(=O)c1cnccn1,inactive: -10.2%
10,O=C1N[C@H](Cc2ccccc2)COCc2cnnn2CC[C@@H]1Cc1ccc(-c2ccccc2)cc1,inactive: 10.4%
11,CCC(=O)N1C[C@@H](C)[C@@H](OC)CN(C)C(=O)c2cc(NC(=O)Nc3ccc(Cl)cc3)ccc2OC[C@H]1C,inactive: -27.4%
12,O=C(c1ccccn1)N1CC[C@@H]2[C@H](CO)Nc3ccc(C#Cc4cccnc4)cc3[C@@H]21,inconclusive: 30.1%
13,C[C@@H]1CN([C@H](C)CO)C(=O)c2ccccc2-c2ccccc2CO[C@@H]1CN(C)Cc1ccccc1C(F)(F)F,active: 69.6%
14,CN1C(=O)c2cc(NC(=O)c3cccc(F)c3)ccc2OC[C@@H]2O[C@@H](CC(=O)NCc3ccccc3Cl)CC[C@@H]21,inactive: 36%
15,C[C@@H]1CN([C@H](C)CO)C(=O)CCCn2nncc2CO[C@H]1CN(C)C(=O)c1cc(-c2ccccc2)on1,inactive: -10.9%
16,CO[C@H](CN(C)Cc1ccc2c(c1)OCO2)[C@@H](C)CN(C(=O)Nc1ccc(F)cc1)[C@H](C)CO,inactive: -17.7%
17,C[C@H](CO)N1C[C@H](C)[C@@H](CN(C)S(=O)(=O)c2ccccc2C#N)OCc2cnnn2CCCC1=O,inconclusive: 33.1%
18,C[C@@H]1CN([C@@H](C)CO)C(=O)CCCn2cc(nn2)CO[C@H]1CN(C)Cc1ccccc1,inconclusive: 29.2%
19,CO[C@@H]1CN(C)C(=O)c2ccc(NC(=O)c3nc4ccccc4s3)cc2OC[C@@H](C)N(Cc2cccnc2)C[C@@H]1C,inactive: 1.63%
20,O=C(C[C@H]1C[C@@H]2c3cc(NC(=O)C4CCOCC4)ccc3O[C@@H]2[C@@H](CO)O1)NCCN1CCCCC1,inactive: 23.7%
